Laboratory results from article PMC6683012.
Changes are numbered by the printed parent chain. These are yes or no findings as the source states them, for the method shown. In cells and extracts the contact can be indirect. Some results given as binding are weak or reduced against the parent protein; the word gives no strength. For part of these data: Tags and fused reporters may be left off the sequences shown. Values belong to the binder of their own block, whether it stands above or below them.

Protein sequences, listed by entry. Tags and fused reporters are not part of them.
UniProt Q9LTB8: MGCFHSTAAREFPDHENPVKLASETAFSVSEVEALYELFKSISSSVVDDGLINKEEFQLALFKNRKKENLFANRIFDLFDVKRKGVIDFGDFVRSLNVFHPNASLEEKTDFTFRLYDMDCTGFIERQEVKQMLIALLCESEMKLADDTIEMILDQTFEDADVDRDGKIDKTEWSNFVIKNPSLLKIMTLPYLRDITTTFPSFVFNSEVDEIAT

What was measured:
Assay in all cases: split reporter; ratiometric BiFC (rBiFC 2in1 vectors), transient expression in Nicotiana benthamiana leaves for 2 days; YFP/RFP ratio from 10-30 cells; ratios greater than 1 taken as interaction
[1] = target: T1, SIRK1-cYFP (Arabidopsis) (UniProt Q0WR59)
T1 sequence: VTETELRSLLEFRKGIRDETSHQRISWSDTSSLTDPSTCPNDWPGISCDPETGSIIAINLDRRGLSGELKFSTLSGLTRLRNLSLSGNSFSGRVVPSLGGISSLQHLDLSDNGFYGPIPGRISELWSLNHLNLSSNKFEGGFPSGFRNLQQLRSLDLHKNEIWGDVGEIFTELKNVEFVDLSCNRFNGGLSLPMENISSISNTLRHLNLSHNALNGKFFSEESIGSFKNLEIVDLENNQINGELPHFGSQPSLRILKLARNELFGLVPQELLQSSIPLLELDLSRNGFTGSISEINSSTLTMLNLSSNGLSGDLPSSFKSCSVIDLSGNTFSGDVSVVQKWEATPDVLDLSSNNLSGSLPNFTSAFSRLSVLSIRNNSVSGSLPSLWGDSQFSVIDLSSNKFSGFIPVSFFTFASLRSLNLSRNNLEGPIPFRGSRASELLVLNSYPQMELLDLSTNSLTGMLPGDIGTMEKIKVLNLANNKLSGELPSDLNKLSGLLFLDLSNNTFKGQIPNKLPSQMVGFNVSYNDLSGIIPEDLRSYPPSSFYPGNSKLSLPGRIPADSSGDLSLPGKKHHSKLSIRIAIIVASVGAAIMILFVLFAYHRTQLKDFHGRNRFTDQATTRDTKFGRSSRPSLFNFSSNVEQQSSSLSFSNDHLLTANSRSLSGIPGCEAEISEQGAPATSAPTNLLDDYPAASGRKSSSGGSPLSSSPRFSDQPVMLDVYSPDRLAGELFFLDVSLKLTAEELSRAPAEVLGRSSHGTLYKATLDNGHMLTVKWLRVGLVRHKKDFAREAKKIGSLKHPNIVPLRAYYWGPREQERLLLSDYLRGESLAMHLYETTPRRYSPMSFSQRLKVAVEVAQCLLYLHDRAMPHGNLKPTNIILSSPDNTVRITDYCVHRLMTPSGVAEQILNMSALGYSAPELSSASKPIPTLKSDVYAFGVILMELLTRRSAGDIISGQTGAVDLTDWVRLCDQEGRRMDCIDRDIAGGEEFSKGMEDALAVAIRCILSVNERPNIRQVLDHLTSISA

[2] = target: T2, cYFP-PIP2;4 (Arabidopsis) (UniProt Q9FF53)
T2 sequence: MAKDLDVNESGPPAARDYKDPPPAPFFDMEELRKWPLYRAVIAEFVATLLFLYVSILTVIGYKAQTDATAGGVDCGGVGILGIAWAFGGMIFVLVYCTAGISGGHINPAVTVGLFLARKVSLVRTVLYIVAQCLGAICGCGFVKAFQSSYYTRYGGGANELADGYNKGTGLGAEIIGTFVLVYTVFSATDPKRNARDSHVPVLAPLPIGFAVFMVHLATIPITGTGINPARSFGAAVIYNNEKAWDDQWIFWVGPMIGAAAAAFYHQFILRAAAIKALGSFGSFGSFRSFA

[3] = target: T3, SIRK1S744D-cYFP (Arabidopsis) (UniProt Q0WR59)
T3 sequence: T1 sequence with S723D

[4] = target: T4, SIRK1S744A-cYFP (Arabidopsis) (UniProt Q0WR59)
T4 sequence: T1 sequence with S723A

[5] = target: Calcineurin B-like Calcium Sensor Protein CBL9 (Arabidopsis) (UniProt Q9LTB8)

- binding [1]: binds
- binding [2]: binds
- binding [3]: binds
- binding [4]: no binding
B1: QSK1-nYFP (receptor, UniProt Q9M8T0 24-627)
chain: SDLESDRRALLAVRNSVRGRPLLWNMSASSPCNWHGVHCDAGRVTALRLPGSGLFGSLPIGGIGNLTQLKTLSLRFNSLSGPIPSDFSNLVLLRYLYLQGNAFSGEIPSLLFTLPSIIRINLGENKFSGRIPDNVNSATRLVTLYLERNQLSGPIPEITLPLQQFNVSSNQLNGSIPSSLSSWPRTAFEGNTLCGKPLDTCEAESPNGGDAGGPNTPPEKKDSDKLSAGAIVGIVIGCVVGLLLLLLILFCLCRKRKKEENVPSRNVEAPVAAATSSAAIPKETVVVVPPAKATGSESGAVNKDLTFFVKSFGEFDLDGLLKASAEVLGKGTVGSSYKASFEHGLVVAVKRLRDVVVPEKEFRERLHVLGSMSHANLVTLIAYYFSRDEKLLVFEYMSKGSLSAILHGNKGNGRTPLNWETRAGIALGAARAISYLHSRDGTTSHGNIKSSNILLSDSYEAKVSDYGLAPIISSTSAPNRIDGYRAPEITDARKISQKADVYSFGVLILELLTGKSPTHQQLNEEGVDLPRWVQSVTEQQTPSDVLDPELTRYQPEGNENIIRLLKIGMSCTAQFPDSRPSMAEVTRLIEEVSHSSGSPNPVSD

- binding [5]: binds
B2: CBL-interacting protein kinase CIPK23 (protein, UniProt Q93VD3 1-482)
chain: MASRTTPSRSTPSRSTPSGSSSGGRTRVGKYELGRTLGEGTFAKVKFARNVENGDNVAIKVIDKEKVLKNKMIAQIKREISTMKLIKHPNVIRMFEVMASKTKIYFVLEFVTGGELFDKISSNGRLKEDEARKYFQQLINAVDYCHSRGVYHRDLKPENLLLDANGALKVSDFGLSALPQQVREDGLLHTTCGTPNYVAPEVINNKGYDGAKADLWSCGVILFVLMAGYLPFEDSNLTSLYKKIFKAEFTCPPWFSASAKKLIKRILDPNPATRITFAEVIENEWFKKGYKAPKFENADVSLDDVDAIFDDSGESKNLVVERREEGLKTPVTMNAFELISTSQGLNLGSLFEKQMGLVKRKTRFTSKSSANEIVTKIEAAAAPMGFDVKTNNYKMKLTGEKSGRKGQLAVATEVFQVAPSLYMVEMRKSGGDTLEFHKFYKNLTTGLKDIVWKTIDEEKEEGTDGGGTNGAMANRTIAKQST

- binding [5]: no binding
B3: CIPK14 (protein, UniProt Q9LZW4 1-442)
chain: MVDSDPVEFPPENRRGQLFGKYEVGKLVGCGAFAKVYHGRSTATGQSVAIKVVSKQRLQKGGLNGNIQREIAIMHRLRHPSIVRLFEVLATKSKIFFVMEFAKGGELFAKVSKGRFCEDLSRRYFQQLISAVGYCHSRGIFHRDLKPENLLLDEKLDLKISDFGLSALTDQIRPDGLLHTLCGTPAYVAPEVLAKKGYDGAKIDIWSCGIILFVLNAGYLPFNDHNLMVMYRKIYKGEFRIPKWTSPDLRRLLTRLLDTNPQTRITIEEIIHDPWFKQGYDDRMSKFHLEDSDMKLPADETDSEMGARRMNAFDIISGSPGFNLSGLFGDARKYDRVERFVSAWTAERVVERLEEIVSAENLTVAKKETWGMKIEGQKGNFAMVVEINQLTDELVMIEVRKRQRAAASGRDLWTDTLRPFFVELVHESDQTDPEPTQVHTTS

- binding [1]: binds
- binding [2]: binds
- binding [4]: no binding
B4: QSK2-nYFP (receptor, UniProt Q9FMD7 24-625)
chain: DLEADRRALIALRDGVHGRPLLWNLTAPPCTWGGVQCESGRVTALRLPGVGLSGPLPIAIGNLTKLETLSFRFNALNGPLPPDFANLTLLRYLYLQGNAFSGEIPSFLFTLPNIIRINLAQNNFLGRIPDNVNSATRLATLYLQDNQLTGPIPEIKIKLQQFNVSSNQLNGSIPDPLSGMPKTAFLGNLLCGKPLDACPVNGTGNGTVTPGGKGKSDKLSAGAIVGIVIGCFVLLLVLFLIVFCLCRKKKKEQVVQSRSIEAAPVPTSSAAVAKESNGPPAVVANGASENGVSKNPAAVSKDLTFFVKSFGEFDLDGLLKASAEVLGKGTFGSSYKASFDHGLVVAVKRLRDVVVPEKEFREKLQVLGSISHANLVTLIAYYFSRDEKLVVFEYMSRGSLSALLHGNKGSGRSPLNWETRANIALGAARAISYLHSRDATTSHGNIKSSNILLSESFEAKVSDYCLAPMISPTSTPNRIDGYRAPEVTDARKISQKADVYSFGVLILELLTGKSPTHQQLHEEGVDLPRWVSSITEQQSPSDVFDPELTRYQSDSNENMIRLLNIGISCTTQYPDSRPTMPEVTRLIEEVSRSPASPGPLSD
